Residue numbers refer to the chain shown, from its start. These are yes or no findings as the source states them, for the method shown. Some entries that bind do so weakly or less than the wild type.

Assay in all cases: two-hybrid; split-ubiquitin membrane yeast two-hybrid (MYTH) in S. cerevisiae; bait-Cub-LexA-VP16 strains mated with the arrayed Nub prey library, diploids spotted in quadruplicate on SD-leu-trp-ade-his with 25 mM 3-AT, imaged every 24 hr for 4 days; positive by a colony density cutoff
Assay [1] addresses T1, Cut11 L521F MYTH bait (S. pombe) (UniProt O13961).
T1 sequence: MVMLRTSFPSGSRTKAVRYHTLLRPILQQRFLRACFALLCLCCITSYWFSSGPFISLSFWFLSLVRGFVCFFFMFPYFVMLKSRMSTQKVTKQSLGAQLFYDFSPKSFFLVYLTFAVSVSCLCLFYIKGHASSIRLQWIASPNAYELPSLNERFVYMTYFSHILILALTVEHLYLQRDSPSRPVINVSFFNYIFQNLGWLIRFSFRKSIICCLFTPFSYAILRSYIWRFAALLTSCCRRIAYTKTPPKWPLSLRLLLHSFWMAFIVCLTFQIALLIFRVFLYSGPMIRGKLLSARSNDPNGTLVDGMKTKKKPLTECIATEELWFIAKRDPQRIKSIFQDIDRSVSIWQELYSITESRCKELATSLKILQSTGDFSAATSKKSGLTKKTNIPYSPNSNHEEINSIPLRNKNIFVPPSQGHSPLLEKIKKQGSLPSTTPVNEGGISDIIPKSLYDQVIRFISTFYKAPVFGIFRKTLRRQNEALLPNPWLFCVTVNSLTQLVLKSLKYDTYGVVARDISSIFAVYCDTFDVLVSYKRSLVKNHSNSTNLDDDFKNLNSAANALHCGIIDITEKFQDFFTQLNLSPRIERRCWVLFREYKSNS

In assay [2] the target is T2, Cut11 MYTH bait (wild type) (S. pombe) (UniProt O13961).
T2 sequence: T1 sequence with F521L

Assay [3] addresses T3, Ima1 MYTH bait (S. pombe) (UniProt O13681).
T3 sequence: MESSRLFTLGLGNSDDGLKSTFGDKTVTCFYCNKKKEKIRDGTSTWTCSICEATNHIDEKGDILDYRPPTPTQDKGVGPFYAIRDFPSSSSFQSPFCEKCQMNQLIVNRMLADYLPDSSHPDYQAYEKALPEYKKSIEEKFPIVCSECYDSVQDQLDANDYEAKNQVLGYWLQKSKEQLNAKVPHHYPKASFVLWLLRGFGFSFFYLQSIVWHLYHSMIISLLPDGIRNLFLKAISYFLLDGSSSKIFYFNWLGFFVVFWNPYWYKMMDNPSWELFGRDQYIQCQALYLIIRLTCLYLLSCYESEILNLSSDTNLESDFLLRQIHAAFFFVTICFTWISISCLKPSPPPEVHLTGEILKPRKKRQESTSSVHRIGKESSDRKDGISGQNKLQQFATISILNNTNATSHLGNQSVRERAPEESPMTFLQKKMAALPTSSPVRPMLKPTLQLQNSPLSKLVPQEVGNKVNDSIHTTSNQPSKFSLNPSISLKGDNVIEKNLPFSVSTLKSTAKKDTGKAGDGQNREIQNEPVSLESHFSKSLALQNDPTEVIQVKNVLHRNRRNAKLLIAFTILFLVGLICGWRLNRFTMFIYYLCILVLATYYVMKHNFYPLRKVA

Assay [4] has as its target T4, Lem2 MYTH bait (S. pombe) (UniProt Q10109).
T4 sequence: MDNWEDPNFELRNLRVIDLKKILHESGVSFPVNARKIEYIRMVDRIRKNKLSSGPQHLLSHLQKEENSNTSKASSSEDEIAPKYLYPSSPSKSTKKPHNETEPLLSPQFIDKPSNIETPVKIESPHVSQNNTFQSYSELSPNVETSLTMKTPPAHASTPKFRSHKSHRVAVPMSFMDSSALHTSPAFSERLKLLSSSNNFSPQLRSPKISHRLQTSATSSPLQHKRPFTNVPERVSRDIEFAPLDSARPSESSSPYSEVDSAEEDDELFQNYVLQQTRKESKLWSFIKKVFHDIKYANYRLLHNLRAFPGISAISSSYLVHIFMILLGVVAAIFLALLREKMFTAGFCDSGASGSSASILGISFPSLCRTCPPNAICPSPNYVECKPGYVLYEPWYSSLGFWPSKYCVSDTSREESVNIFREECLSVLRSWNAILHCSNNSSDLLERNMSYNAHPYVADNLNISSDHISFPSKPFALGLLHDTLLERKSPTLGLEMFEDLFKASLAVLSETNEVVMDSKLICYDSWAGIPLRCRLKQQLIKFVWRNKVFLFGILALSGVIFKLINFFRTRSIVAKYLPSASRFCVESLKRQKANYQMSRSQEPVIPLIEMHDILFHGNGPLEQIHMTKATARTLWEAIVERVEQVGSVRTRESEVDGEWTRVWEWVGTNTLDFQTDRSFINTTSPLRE

B1: Nup40 MYTH prey (protein, UniProt O13838 1-371)
chain: MSFGGSGSITNRSTLKPLSVDDLRSPSPQKEYRGFRTSVSNIPQEKKFVPSHLSHFGSSQQRRFAPEVSSPLAEPYESSSSFRLSLSSPPSSKFGGPSFGTPKPFLHTNRLGTGSLIEDAPPTQSIYDFSSSRQINALNVGQSSSPFSPVSEKVYDPSFTMSGAPQDSNTSVIVFGFPPELTNQVIAEFSRFGTIISENSLTASSAGFTPSKGPISGNWLQLTYAEPSSAAKAVLSNGMLINDSFMVGCIYSPAEAKEHVPKTLRNSNKDLEMTDASSSETSMSIPVHADAHFQSQSGLGKKVIVQHKNDIFKSSQKHQPRNWLFHYLFGFGSTEPIDEEEKSKTASDNTSLQTSLFGKIVQVVLHTLFGF
Regarding B1, the binding entry in assay [1] and in assay [2] was “binds” throughout.

B2: Yea4 MYTH prey (protein, UniProt O74750 1-316)
chain: MIASALSFIFGGCCSNAYALEALVREFPSSGILITFSQFILITIEGLIYFLLNDVQSLKHPKVPRKRWFVVVVMFFAINVLNNVALGFDISVPVHIILRSSGPLTTMAVGRILAGKRYSSLQIGSVFILTIGVIIATLGNAKDLHLHVESMTRFGIGFTILVITQILGAIMGLVLENTYRIYGSDWRESLFYTHALSLPFFLFLLRPIRSQWNDLFAIHTKGFLNLPSGVWYLCFNTLAQYFCVRGVNALGAETSALTVSVVLNVRKFVSLCLSLILFENEMGPAVKFGALLVFGSSAVYASARSKPKTNGLKKND
B2: the binding result in assay [3] was “binds”.

B3: Cho1 MYTH prey (protein, UniProt O74827 1-196)
chain: MAIFEINNSFLICAVSIALNPLLWNIAARSEYNHKTLTKLANGDSKKACYMLAACIFVAGIVRDLIYQNALKQQPTLGIFMNPLVQGIAKLIFCFGSVLVLSSMYKLGLVGTYLGDYFGFLLPERVSGFPFNVNDNPMYNGSTLCFLSTALRYGKVAGLLLTLEVFFVYRIALKFEEPFTAKIYAARDSKQAKKSE
Take B3: the binding result in assay [3] was “binds”.

B4: Pep12 MYTH prey (protein, UniProt O94651 1-263)
chain: MSFVDLEQGRHKIEQNGDFPALASSIAQEIHALRGNTAAIHRYLVNNLTKNLHEVLEQSRELSQKVRSDLVRLANIKDTKYGEEASSFALSKLTRDFNTVLAELQRVQQKCAQQESDSVAAAQAALNQDVGQHFIEEEERNVSLSNNSSGQRQPLTESKISNSQLEYQQRLINERQGEIENLTQGINELNEIFRDLSTIINEQGELVTNIEYNVGNTSTNTKNASRQLQIANEHSRKARKRSFCFLVILVVILGVILTALIMG
Take B4: the binding result in assay [3] is given as “no binding”.

B5: Rbd2 MYTH prey (protein, UniProt O74926 1-251)
chain: MIFMILGRSKEFILKLPIWTQIITYIAILVYALSFFGISTGVLSLSWIGLLQKRQLYEIITYVTLHLSMLHIVFNFVSLLPAMSQFEKKQGTLACILVTVIPYTLFPGIMHLIVYHFFLRKDYVSIAGLSGWAFAFISASCVHSPQRLISFFNLFSIPAYCFPIIYLIMTTILVPKASFIGHASGAVMGYCTPFMLGSIPLKSWAQNVDPIFQSWVKNYHSFDQLSHAQLPIAEPLSTFSSFPGKGTRLGG
As to B5, in assay [3], the binding entry is listed as “binds”.

B6: Sur2 MYTH prey (protein, UniProt O94298 1-293)
chain: MVTTVEMLTTWNPVTVSLVSPVIIYWVASAFFGFLHYIELPVFEKYRIHPPEEIARRNRVPQMAVVKAVLFQQLCEVVVGIALAMFEGYPEPIDEAKQMLRYEAFFSKNLPALLQVAPFAPKLAYNFIVPAFQYFFAFFIIDSWQYFWHRYLHYNKKLYNMIHAHHHRLQVPYAMGALYNHPFEGLILDTFGAGVAYLAAGLSPQQAVIFFTLSTLKTVDDHCGYVFPYDPLQMFFANNARYHDLHHQPYGFQKNFSQPFFTFWDHVLGTYMPPKSETPYEKKQKAKNAKKVN
On to B6, for which, in assay [3], the binding result is “binds”.

B7: Nup85 MYTH prey (protein, UniProt Q9UUE5 1-675)
chain: MESSDEVDLPVYHLQNAPIENGKLNDWRSKGRTVAFKLHPFLRKGLAYINNKEFDENTLKSDKFEEVESLVYEFSTPSTLIEPNYLLTAWHELWEELQDTYMTPILDSEANLLLLTQFYGKISSLFRSKIIQVLEELQSRINEGEKDCQPVLDSLWEVESAWRCAEAIYFPPSSPYTLSTGILDWVNAYDPQPIADDGLEIMAYRIPYQHPEFWPYVNKTAIRGLFEQTISCLEMSGLTKEWPVLKETVDELIDILRYSPCTHQKRIRSVSDFERRWKLWRSRLANLRHVVKKHRDIDSEVLDDFVVLLDILNGNKEVIMLSCAHWQEYFSALAFLYGPLDCKNPEDISLLYQLATGEDSKFYVNGTIEYEQICVNLCSNEPLNAIKHAYLLDLGLAVHLADLLSKSGHLRDYITEEYPITLREHLILEYGQCVLESRNLWQTSFAYWKCVADSGYQRIKACIPYVPLSDVDAKETALQLCKQLKLRDEAQLVLTHWADELIARNHYGEALIALDNAANYSALNRVTWELFDICIAEKKSFSPDKDELLYELFSSPKACTPTLASIISPAATIHQYFFYLQHKKELNASELLVGLLTMVDFPSSRFPKLLELLHEFLNNPLQSNSTDFKLSLVNVYDCIAVLQDQQSTVKDQQLLLSIHERLSSAISWYFLHLKK
As to B7, the binding entry in assay [2] and in assay [4] was “no binding” throughout.

B8: Bem46 MYTH prey (protein, UniProt P54069 1-299)
chain: MAGSLSSAIFNVLKYSGMASLAVTLIALGFLYKYQKTLVYPSAFPQGSRENVPTPKEFNMEYERIELRTRDKVTLDSYLMLQSESPESRPTLLYFHANAGNMGHRLPIARVFYSALNMNVFIISYRGYGKSTGSPSEAGLKIDSQTALEYLMEHPICSKTKIVVYGQSIGGAVAIALTAKNQDRISALILENTFTSIKDMIPTVFPYGGSIISRFCTEIWSSQDEIRKIKKLPVLFLSGEKDEIVPPPQMVLLFGLCGSAKKKFHSFPKCTHNDTCLGDGYFQVIADFLAENDINTPAS
Turning to B8, the binding result in assay [3] was “binds”.

The values above are taken from publication PMC7718735.
